# Read counts are not given, so values of variants with three or more changes are uncertain.
# B1: CPEB3 Ribozyme (parent)
# chain: UAACAGGGGGCCACAGCAGAAGCGUUCACGUCGCAGCCCCUGUCAGAUUCUGGUGAAUCUGCGAAUUCUGCUGUAUAUCUC
# Variants of: B1
# Test: self-cleavage, relative activity (ratio to wild type); higher = more cleavage; in vitro, sequencing
# Method in brief: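 Relative activity was defined as the cleaved/total read fraction for a variant divided by the same fraction for the unmutated ribozyme. CPEB3 self-cleaving ribozyme libraries were made by rounds of error-prone PCR, barcoded, and transcribed in vitro with T7 RNA polymerase for 5 hours at 37°C, and cleavage ran through transcription plus a 15 min DNase I step before EDTA. Illumina sequencing of template-switched reverse transcripts gave the reads, and DNA sequencing mapped the barcodes. Averages come from three batches, using variants with at least 5 reads.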
row,Variant,self-cleavage
1,C4U A15G U41C U49C U60C,0.17
2,A3U G36U U49C A56G,0.17
3,A3U U25C U72C,0.28
4,C4G A21U U25C U72G,0.18
5,C4U C12U A35C U76A,1.16
6,A3U G7A A15G,0.09
7,C4U C14U A21G U49A A57G U78A,0.15
8,A3U U41A U49C U69C,0.22
9,A3U U54C A75G,1.01
10,A3U G9U C44U A77G,0.28
11,A3U U26A A47G U49C,0.43
12,A3U U26A G33A A64G U67C U69G U78G,0.09
13,A3U A21G U51C U54A U78A,0.68
14,A3U C40U U72C,0.87
15,A3U G8U C23G A28U,0.06
16,C4G A20G G24A C50U U54G A64G,0.06
17,A3U C23G A35G U41A C44G U74C,0.14
18,A3U A28G U43A G53A U72A U74A,0.75
19,C4G A13U C40U U43C U60C,0.12
20,C4A A13U G30C U31A A64U,0.12
21,A3U U43C U74C A77G U80A,0.92
22,A3U U41C U60C A64G,0.2
23,A3U G16U A20G G46C,0.28
24,C4U A20U U26C A64G U69C,0.2

row,Variant,self-cleavage
1,A3U U54A A56U,0.59
2,C4A A20U U31A A35G,0.27
3,C4U G10C A64G U78C,0.32
4,A3U C38U U69C A75G,0.42
5,A3U G10C A20G A28G U41A G70A,0.09
6,A3U C4U A47G G53A,1.15
7,C4A G10C C29G U54C A56U,0.08
8,A3U U49C A56G C68A,0.38
9,C4A G8A A18G U31A U58G C71U,0.06
10,C4U G9U A28U U54C U80C,0.12
11,C4G A35C U48C U60C,0.13
12,C4G U26C C40G U43A U60C,0.29
13,C4G A21G G46A U69A,0.14
14,A3U A35G C38U U51G,1.3
15,A3U G6U C23U A64G,0.1
16,C4U G30C G46C A57U G63A,0.22
17,C4A G36A A45U U48C A64U,0.09
18,C4G U26C A45G U60A,0.15
19,C4A U41A U69A,0.14
20,A3U A45G A64U,0.31
21,C4U C44U U60C A64G,0.17
22,C4G U43C U54C A77G U80C,0.16
23,A3U C11A U43C A56G G63A U72C U74C,0.09
24,A3U A21G U41A U48A,0.1

row,Variant,self-cleavage
1,A3U A47U U54C,0.32
2,A3U U49A U51A U58C A75G,0.12
3,A3U G36U A56G A64G,0.1
4,A3U G7C U43A A65G U72C,0.08
5,A3U C12U U51A U69A,1.01
6,A3U G7U A20U G22A G36A,0.06
7,C4U A20G C81A,1.19
8,C4U U26C G33A U76C,0.45
9,A3U A21G U25C U51A U72C,0.08
10,C4U C11A A13G A18G U26C U66C,0.04
11,C4G A21G U80C,0.84
12,C4G U49C U80A,0.63
13,C4G A5G U60C,0.43
14,A3U G8C C14U A20G U76C A77G,0.6
15,A3U A75G A77U,1.08
16,A3U A45U U72G,0.42
17,A3U G8A U26C U60A U80C,0.38
18,C4G U31C A45U,0.28
19,A3U G10A A21G A45G U69C A77U,0.02
20,C4U U26C U69A U80C,0.31
21,C4G A35U U69A,0.42
22,A3U U31C U43C U60A U72C U76C,0.34
23,A3U A20U C38A G46A,0.05
24,A3U A56G C62U U69A A77G U80A,0.43

row,Variant,self-cleavage
1,A3U U54C A77U,1.07
2,A3U U25C U43A U54A U67A A77C,0.13
3,C4U A20U C44U U60C U72C U78C,0.06
4,C4G G24A A35G U54A C62U,0.07
5,C4A A35G U74A,1.2
6,C4U A28G U31A U41A U49C U51C,0.26
7,A3U A21G A28G U49C U80C,0.09
8,C4U G33A C40U U72C,0.35
9,C4U G22C A28U A35G A64G U78C,0.08
10,A3U G9U A15G U48C A56G U72C,0.23
11,C4U A15U U25C U26C A45G U80C,0.11
12,C4U A20U U80C,0.69
13,A3U C17G G24U U25G U26C,0.07
14,A3U U25C U26A A35G A47G A56G,0.27
15,A3U C27U C32U U60A,0.15
16,C4A U41G U72A U78C,0.34
17,C4U G70A U72C,0.64
18,C4U A15G U25C A56U A64G U66C,0.27
19,A3U G8A A18G G19U U25C U31C U74C,0.06
20,A3U C38U U60C A65G U69C A75G,0.19
21,A3U A75G U76A,0.9
22,A3U G9A U26A U54G U80A,0.08
23,A3U U31C C38U,0.9
24,A3U U25C U67C U78C,0.24

row,Variant,self-cleavage
1,C4U A13U A15U G16A C62U U69A,0.14
2,C4U A5G A18G A45G A56G U58G U66A,0.32
3,A3U U41A G61C,0.35
4,A3U U48C A57G U72C,1.25
5,A3U U25C A56U U58A U60A G73U,0.06
6,A3U U43A A64G,0.76
7,A3U A35U U76C U80A,0.96
8,C4A A5G C12G A18U C29A,0.23
9,A3U A45C U51C A56G U58C G61A,0
10,C4U G7U A47G A75G,0.05
11,C4G A13G A45C,0.49
12,A3U G7A C50A,0.48
13,C4U G8A U54C U66C,0.05
14,A3U U25C U26C U66A U78A,0.08
15,C4U A13G U69C,0.38
16,A3U C14U G30A G46C A56U,0.19
17,C4U A20G U31C U49C U74A,0.29
18,A3U C11G A20G A21G U69C,0.21
19,C4U A18G U49C,0.26
20,C4U A28C G30C A57G U60C,0.15
21,A3U A28C G55A,0.59
22,A3U G7A G36U A45G A47G U60A,0.08
23,A3U G9A A35C A45C U60C U66A U74A,0.05
24,A3U A20U U74C,0.35

row,Variant,self-cleavage
1,C4U U25C C50U U51C U54C,0.42
2,A3U U48C G52A C71U U72A,0.62
3,C4G A47U U60C A64G U66C,0.21
4,A3U G8A G10A U25C U58C U60A U67A,0.08
5,C4A A35G A45G U66C A75U U80C,1.01
6,A3U A21G U25C U31G C59U A64U,0.09
7,C4U A20G U54C,0.83
8,C4U A20U U74A U80C,0.75
9,C4A A35G U54C A56C U66A,1.04
10,A3U C12A A13C U41C U54C,1.24
11,A3U U26C U60A,0.28
12,C4U U31C A45U G70A,0.47
13,C4U A21G U26C U51C U60C,0.21
14,A3U U25C U54C U78A,0.54
15,A3U A21G C37U U76C U80C,0.54
16,A3U G30A C59U A64U,0.12
17,A3U A28G C29A U74A,0.49
18,C4A U26G U78C,0.46
19,C4A A20U C71G U78C,0.1
20,A3U A45U A56G A64G U74C,0.24
21,C4U A21C U41A G46A A47G A77G,0.03
22,C4A A15U A45U,0.38
23,A3U A28C A75G,0.3
24,C4U G10A A13G A56G,0.14

row,Variant,self-cleavage
1,A3U U26C U51C U60A U80A,0.33
2,A3U U49C A64U U80C,0.34
3,C4A G10A U31A U41C A65G,0.08
4,C4A A20G U25A A57G,0.22
5,A3U G6A G10A A20U C44U U69C U72A,0.07
6,A3U G7U G19A C40G U51G,0.06
7,C4U A13U C40A U69G U72A,0.07
8,C4U A28G A64G,0.96
9,C4U A13U G36U,0.43
10,C4U U25C A28U C29A U67G,0.17
11,C4G A18G U26A A28U U60A,0.3
12,C4U U25C A35G A45G U69A U74C,0.11
13,A3U U41A A45C U72A,0.03
14,A3U U31C U78C,0.99
15,A3U U72C A77G,1.07
16,C4U A47G A64U U80A,0.51
17,C4U A20U A57G U67C,0.17
18,A3U U25C A57C,0.12
19,A3U G8A A28G,0.31
20,C4A A15U A28G U74A U80C,0.96
21,A3U C17G U26C U49A A56G,0.08
22,C4A A21G U26C U51C U54C,0.35
23,A3U C38A A56G U58A U76C,0.1
